B1: IgG1-F12 (antibody)
heavy: QVQLQESGPGLVKPSETLSLTCAVSGHSISHDHAWSWVRQPPGEGLEWIGFISYSGITNYNPSLQGRVTISRDNSKNTLYLQMNSLRAEDTAVYYCARSLARTTAMDYWGEGTLVTVSS[here human IgG1 constant region with M252Y N434W (EU numbers) without letters]
light: DIQMTQSPSSLSASVGDRVTITCRASQDISSYLNWYQQKPGKAPKLLIYYTSRLHSGVPSRFSGSGSGTDFTFTISSLQPEDIATYYCQQGNTLPYTFGQGTKVEIKRTVAAPSVFIFPPSDEQLKSGTASVVCLLNNFYPREAKVQWKVDNALQSGNSQESVTEQDSKDSTYSLSSTLTLSKADYEKHKVYACEVTHQGLSSPVTKSFNRGEC
notes: EU numbering; copies: 2 + 2
B2: IgG1-F13 (antibody)
heavy: QVQLQESGPGLVKPSETLSLTCAVSGHSISHDHAWSWVRQPPGEGLEWIGFISYSGITNYNPSLQGRVTISRDNSKNTLYLQMNSLRAEDTAVYYCARSLARTTAMDYWGEGTLVTVSS[here human IgG1 constant region with M252W N434Y (EU numbers) without letters]
light: DIQMTQSPSSLSASVGDRVTITCRASQDISSYLNWYQQKPGKAPKLLIYYTSRLHSGVPSRFSGSGSGTDFTFTISSLQPEDIATYYCQQGNTLPYTFGQGTKVEIKRTVAAPSVFIFPPSDEQLKSGTASVVCLLNNFYPREAKVQWKVDNALQSGNSQESVTEQDSKDSTYSLSSTLTLSKADYEKHKVYACEVTHQGLSSPVTKSFNRGEC
notes: EU numbering; copies: 2 + 2
B3: IgG1-F19 (antibody)
heavy: QVQLQESGPGLVKPSETLSLTCAVSGHSISHDHAWSWVRQPPGEGLEWIGFISYSGITNYNPSLQGRVTISRDNSKNTLYLQMNSLRAEDTAVYYCARSLARTTAMDYWGEGTLVTVSS[here human IgG1 constant region with P257L N434Y (EU numbers) without letters]
light: DIQMTQSPSSLSASVGDRVTITCRASQDISSYLNWYQQKPGKAPKLLIYYTSRLHSGVPSRFSGSGSGTDFTFTISSLQPEDIATYYCQQGNTLPYTFGQGTKVEIKRTVAAPSVFIFPPSDEQLKSGTASVVCLLNNFYPREAKVQWKVDNALQSGNSQESVTEQDSKDSTYSLSSTLTLSKADYEKHKVYACEVTHQGLSSPVTKSFNRGEC
notes: EU numbering; copies: 2 + 2
B4: IgG1-F20 (antibody)
heavy: QVQLQESGPGLVKPSETLSLTCAVSGHSISHDHAWSWVRQPPGEGLEWIGFISYSGITNYNPSLQGRVTISRDNSKNTLYLQMNSLRAEDTAVYYCARSLARTTAMDYWGEGTLVTVSS[here human IgG1 constant region with V308F N434Y (EU numbers) without letters]
light: DIQMTQSPSSLSASVGDRVTITCRASQDISSYLNWYQQKPGKAPKLLIYYTSRLHSGVPSRFSGSGSGTDFTFTISSLQPEDIATYYCQQGNTLPYTFGQGTKVEIKRTVAAPSVFIFPPSDEQLKSGTASVVCLLNNFYPREAKVQWKVDNALQSGNSQESVTEQDSKDSTYSLSSTLTLSKADYEKHKVYACEVTHQGLSSPVTKSFNRGEC
notes: copies: 2 + 2
B5: IgG1-F26 (antibody)
heavy: QVQLQESGPGLVKPSETLSLTCAVSGHSISHDHAWSWVRQPPGEGLEWIGFISYSGITNYNPSLQGRVTISRDNSKNTLYLQMNSLRAEDTAVYYCARSLARTTAMDYWGEGTLVTVSS[here human IgG1 constant region with I332V (EU numbers) without letters]
light: DIQMTQSPSSLSASVGDRVTITCRASQDISSYLNWYQQKPGKAPKLLIYYTSRLHSGVPSRFSGSGSGTDFTFTISSLQPEDIATYYCQQGNTLPYTFGQGTKVEIKRTVAAPSVFIFPPSDEQLKSGTASVVCLLNNFYPREAKVQWKVDNALQSGNSQESVTEQDSKDSTYSLSSTLTLSKADYEKHKVYACEVTHQGLSSPVTKSFNRGEC
notes: EU numbering; copies: 2 + 2
B6: IgG1-F27 (antibody)
heavy: QVQLQESGPGLVKPSETLSLTCAVSGHSISHDHAWSWVRQPPGEGLEWIGFISYSGITNYNPSLQGRVTISRDNSKNTLYLQMNSLRAEDTAVYYCARSLARTTAMDYWGEGTLVTVSS[here human IgG1 constant region with G237M (EU numbers) without letters]
light: DIQMTQSPSSLSASVGDRVTITCRASQDISSYLNWYQQKPGKAPKLLIYYTSRLHSGVPSRFSGSGSGTDFTFTISSLQPEDIATYYCQQGNTLPYTFGQGTKVEIKRTVAAPSVFIFPPSDEQLKSGTASVVCLLNNFYPREAKVQWKVDNALQSGNSQESVTEQDSKDSTYSLSSTLTLSKADYEKHKVYACEVTHQGLSSPVTKSFNRGEC
notes: EU numbering; copies: 2 + 2
B7: IgG1-F31 (antibody)
heavy: QVQLQESGPGLVKPSETLSLTCAVSGHSISHDHAWSWVRQPPGEGLEWIGFISYSGITNYNPSLQGRVTISRDNSKNTLYLQMNSLRAEDTAVYYCARSLARTTAMDYWGEGTLVTVSS[here human IgG1 constant region with G237M V308F (EU numbers) without letters]
light: DIQMTQSPSSLSASVGDRVTITCRASQDISSYLNWYQQKPGKAPKLLIYYTSRLHSGVPSRFSGSGSGTDFTFTISSLQPEDIATYYCQQGNTLPYTFGQGTKVEIKRTVAAPSVFIFPPSDEQLKSGTASVVCLLNNFYPREAKVQWKVDNALQSGNSQESVTEQDSKDSTYSLSSTLTLSKADYEKHKVYACEVTHQGLSSPVTKSFNRGEC
notes: EU numbering; copies: 2 + 2
B8: IgG1-F32 (antibody)
heavy: QVQLQESGPGLVKPSETLSLTCAVSGHSISHDHAWSWVRQPPGEGLEWIGFISYSGITNYNPSLQGRVTISRDNSKNTLYLQMNSLRAEDTAVYYCARSLARTTAMDYWGEGTLVTVSS[here human IgG1 constant region with S254T N434W (EU numbers) without letters]
light: DIQMTQSPSSLSASVGDRVTITCRASQDISSYLNWYQQKPGKAPKLLIYYTSRLHSGVPSRFSGSGSGTDFTFTISSLQPEDIATYYCQQGNTLPYTFGQGTKVEIKRTVAAPSVFIFPPSDEQLKSGTASVVCLLNNFYPREAKVQWKVDNALQSGNSQESVTEQDSKDSTYSLSSTLTLSKADYEKHKVYACEVTHQGLSSPVTKSFNRGEC
notes: EU numbering; copies: 2 + 2
B9: IgG1-F33 (antibody)
heavy: QVQLQESGPGLVKPSETLSLTCAVSGHSISHDHAWSWVRQPPGEGLEWIGFISYSGITNYNPSLQGRVTISRDNSKNTLYLQMNSLRAEDTAVYYCARSLARTTAMDYWGEGTLVTVSS[here human IgG1 constant region with S254T N434Y (EU numbers) without letters]
light: DIQMTQSPSSLSASVGDRVTITCRASQDISSYLNWYQQKPGKAPKLLIYYTSRLHSGVPSRFSGSGSGTDFTFTISSLQPEDIATYYCQQGNTLPYTFGQGTKVEIKRTVAAPSVFIFPPSDEQLKSGTASVVCLLNNFYPREAKVQWKVDNALQSGNSQESVTEQDSKDSTYSLSSTLTLSKADYEKHKVYACEVTHQGLSSPVTKSFNRGEC
notes: EU numbering; copies: 2 + 2
B10: IgG1-F34 (antibody)
heavy: QVQLQESGPGLVKPSETLSLTCAVSGHSISHDHAWSWVRQPPGEGLEWIGFISYSGITNYNPSLQGRVTISRDNSKNTLYLQMNSLRAEDTAVYYCARSLARTTAMDYWGEGTLVTVSS[here human IgG1 constant region with T256E N434W (EU numbers) without letters]
light: DIQMTQSPSSLSASVGDRVTITCRASQDISSYLNWYQQKPGKAPKLLIYYTSRLHSGVPSRFSGSGSGTDFTFTISSLQPEDIATYYCQQGNTLPYTFGQGTKVEIKRTVAAPSVFIFPPSDEQLKSGTASVVCLLNNFYPREAKVQWKVDNALQSGNSQESVTEQDSKDSTYSLSSTLTLSKADYEKHKVYACEVTHQGLSSPVTKSFNRGEC
notes: EU numbering; copies: 2 + 2

Target: T1, human FcRn (soluble human FcRn complexed with β2-microglobulin) (human, UniProt P61769 part only, limits assumed)
T1 construct: also called hFcRn
Assay: SPR, pH 7.0;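 also: antibodies captured on a Protein L sensor chip with human FcRn injected as analyte, KD calculated from fitted association and dissociation rate constants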

Point of comparison: B9, Kd 2300 nM. Against it:
- B1 — 14-fold lower, 170 nM
- B2 — 7.2-fold lower, 320 nM
- B3 — 5-fold lower, 460 nM
- B4 — 5-fold lower, 460 nM
- B5 — 2.3-fold lower, 1000 nM
- B6 — 3.2-fold higher, 7400 nM
- B7 — within 1.5-fold, 2800 nM
- B8 — 2.9-fold lower, 800 nM
- B10 — 8.2-fold lower, 280 nM

Reference: patent US20200199241A1 (Chugai, published 2020)
